# Over roughly 4,100 compounds, “activity change, negative = cytotoxicity” has its median near -43; the highest 2% begin near 39. Some of the results follow. Entries with a potency or affinity are not part of this list. Entries without a call are filed as inconclusive in the source.
# Experiment: NIH3T3 cell viability loss – ATP luminescence, mouse fibroblasts, counter-screen, dose response (AID 2010)
# Conditions: ATP luminescence (CellTiter-Glo), 90 h; at 6 µM (top of the series)
row,Compound,"activity change, negative = cytotoxicity [%]"
1,O=[N+]([O-])c1cccc(-c2ccc(/C=N/NC(=S)Nc3ccccc3)o2)c1,31
2,Clc1ccc(/C=C/c2nc3ccccc3[nH]2)c(Cl)c1,-44.6
3,CCN(CC)CCn1c(=N)n(CCOc2ccccc2)c2ccccc21,-32.6
4,COc1ccc(/C=C2\SC(=N)N(c3nccs3)C2=O)cc1OC,-50.3
5,Fc1ccc(COc2ccccc2CNCc2ccncc2)cc1,39.3
6,Cc1c(C(=O)OCC(C)C)[nH]c2c1C(=O)CC(c1cccs1)C2 (configuration not stated),-66.1
7,CC1CCN(CCCNC(=O)c2cc3c(Cl)nc4ccccc4c3s2)CC1,-50.2
8,Cc1ccc(Nc2nc(N/N=C\c3ccc4c(c3)OCO4)nc(N3CCOCC3)n2)cc1,-57.2
9,COc1ccc(N=C2S/C(=C\c3ccc(N4CCOCC4)o3)C(=O)N2CCc2c[nH]c3ccccc23)cc1,-40.4
10,O=c1c2ccccc2sn1-c1ccccc1,-34
11,COc1cc(C(=O)Oc2ccccc2/C=N/NC(=O)c2ccc(Cl)cc2)cc(OC)c1OC,-34.8
12,C/C(CC(C)(C)C1CCCCC1)=N\NC(N)=S,-46.1
13,Oc1c(N=NC(=S)Nc2ccccc2F)c2ccccc2n1Cc1ccccc1F,-63.2
14,CCC1=Nc2cc(C(=O)NCCCOC)ccc2Sc2ccccc21,-58.4
15,O=C(CSc1cccc2cccnc12)N/N=C/c1cccnc1,-41.9
16,CCN(CC)CCn1nc2c3c(cccc3c1=O)-c1ccccc1-2,-42.1
17,Cc1cc(C(=O)Nc2nc(-c3ccccn3)cs2)ccc1[N+](=O)[O-],-67.5
18,Cc1cc(C)c2c(N)c3cccc(C)c3nc2n1,-55.6
19,O=C(COC(=O)c1ccccc1C(=O)c1ccc(Cl)c([N+](=O)[O-])c1)NC1CC1,-40

row,Compound,"activity change, negative = cytotoxicity [%]"
1,CC(=O)O[C@@]12CO[C@@H]1C[C@H](O)[C@@]1(C)C(=O)[C@H](O)C3=C(C)[C@@H](OC(=O)[C@H](O)[C@@H](NC(=O)OC(C)(C)C)c4ccccc4)C[C@](O)([C@@H](OC(=O)c4ccccc4)[C@H]21)C3(C)C,-50.6
2,CCc1ccccc1OCC(=O)Nc1nc(-c2cccnc2)cs1,-60.5
3,COC(=O)C1=CN(Cc2ccc(OC)c(OC)c2)C=C(C(=O)OC)C1c1cccs1,-30.9
4,CCCCN(CCCC)S(=O)(=O)c1ccc(NC(=O)c2ccc([N+](=O)[O-])cc2Cl)cc1,-36.5
5,COc1ccccc1NS(=O)(=O)c1cc(NC(=O)Nc2ccc(Cl)cc2Cl)ccc1N1CCCCC1,-37.5
6,O=C(/C(=C/c1cccc(Cl)c1)c1nc2ccccc2[nH]1)c1ccccc1,-34.3
7,O=C(c1cc2nc(-c3ccc(F)cc3)cc(C(F)(F)F)n2n1)N1CCCCC1c1cccnc1 (configuration not stated),-30.1
8,CC(=O)O[C@H]1C(=O)[C@@]2(C)C([C@H](OC(=O)c3ccccc3)[C@]3(O)C[C@H](OC(=O)[C@H](O)[C@@H](NC(=O)c4ccccc4)c4ccccc4)C(C)=C1C3(C)C)[C@]1(OC(C)=O)CO[C@@H]1C[C@H]2O (some centres not stated),-50
9,O=C(CCC(=O)Nc1ccc(Cl)cc1Cl)N/N=C/c1ccc([N+](=O)[O-])o1,-52.7
10,COc1cc(C(=O)NNC(=S)NC(=O)c2ccc(Cl)cc2)cc(OC)c1OC,-67.5
11,O=[N+]([O-])c1ccc(/C=N/NC(=S)Nc2ccc(Cl)cc2Cl)s1,-43.5
12,Oc1c(C(Nc2ccccn2)c2cccnc2)cc(Cl)c2cccnc12 (configuration not stated),-42.7
13,Cc1ccc(NC(=S)/N=C(\N)Nc2nc(C)c3cc(C)c(C)cc3n2)cc1C,35.5
14,C/C(=N\NC(=O)c1ccc(Cl)cc1)c1ccc(Br)s1,-40.2
15,Cc1cnc(C(=O)Nc2cccc3cccnc23)cn1,-39.5
16,NC(=S)N/N=C/c1ccccc1OCc1cccc(Cl)c1,-56.4
17,CC(C)CC(=O)O/N=C1\C(=O)N(Cc2ccc(Cl)cc2)c2ccc([N+](=O)[O-])cc21,-43.4
18,Cc1cc(N/N=C/c2ccc(O)c(C)c2O)nc(-c2ccccc2O)n1,-65.2

# From PubChem BioAssay AID2010 (Broad Institute, 2009)
